The list shows a part of the results. Each Rep nickase domain was tested in vitro on the same pool of single strands (3 µM enzyme, 1 h, 37 °C); shown is the middle of each 90-letter strand. Uncut reads are compared with the no-enzyme pool on a log2 scale; strong cutting gives strongly negative numbers. There is no active / inactive call. Because reads are shares of a total, they shift together, so uncut sequences can rise above 0 when many others are cut.
test system: T1, Rep nickase domain of Muscovy duck circovirus; experiment: uncleaved DNA left, log2 of reads against the no-enzyme library (log2 ratio); higher = less cleavage (more negative = more Rep cleavage of the k-mer); sequences stand for … in CTCGTCCG…ACCGGAGA
T1 sequence (protein, residues 1-111, tag omitted): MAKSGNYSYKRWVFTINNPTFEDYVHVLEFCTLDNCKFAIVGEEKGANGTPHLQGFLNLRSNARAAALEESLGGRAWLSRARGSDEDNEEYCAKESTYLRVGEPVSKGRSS
Procedure: (§1)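 A pool of 90-nt single-stranded DNAs with seven random bases just before the constant AC of the nick site (name = the seven bases) was cut by 3 µM recombinant His6-SUMO-tagged Rep nickase domain (300 nM DNA, 50 mM HEPES pH 8.0, 50 mM NaCl, 1 mM MnCl2, 1 h, 37 °C, three replicates). Uncut DNA was amplified and sequenced.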

| Sequence | uncleaved DNA left (log2) |
| --- | --- |
| TCGAATC | 0.07 |
| TTCCTCG | -0.0483 |
| GGGGCGC | -0.00905 |
| TTCCGGC | 0.0541 |
| AGCTTTC | -0.145 |
| ATACCAC | 0.035 |
| CCTCATG | -0.116 |
| TCGCTCT | 0.0832 |
| TAATAAT | -4.12 |
| GTGCCAC | -0.0915 |
| CTGCCCG | -0.0868 |
| TGCGACT | -0.0897 |
| GTAATCT | -0.098 |
| GGTCGTG | 0.164 |
| AGGCATT | 0.216 |
| GTCGGTT | 0.119 |
| GCGCGTT | -0.161 |
| AGACCAC | 0.0154 |
| CCGTCAA | 0.0891 |
| TGATGCA | -0.0672 |

| Sequence | uncleaved DNA left (log2) |
| --- | --- |
| CTTAAAT | 0.118 |
| TACTTTA | -0.996 |
| GTGGGAA | 0.0881 |
| CTGCATA | 0.109 |
| TAACCAC | -0.122 |
| AGTCGGT | 0.104 |
| TCAAAGA | 0.0729 |
| GAACACA | -0.0242 |
| TACGCCA | 0.0133 |
| GGGGTCG | 0.159 |
| CCCGAAA | 0.032 |
| CCTCGTG | 0.157 |
| CATCAGT | -0.0145 |
| CGCGTTC | 0.0424 |
| AGTAGGA | 0.0128 |
| TCCGGCA | 0.096 |
| CCGCAAC | 0.181 |
| ATACTGG | 0.000739 |
| TGGCAGA | 0.0529 |
| ACCTTCA | -0.061 |

test system: T2, Rep nickase domain of banana bunchy top virus; experiment: as above
T2 sequence (protein, residues 1-94, tag omitted): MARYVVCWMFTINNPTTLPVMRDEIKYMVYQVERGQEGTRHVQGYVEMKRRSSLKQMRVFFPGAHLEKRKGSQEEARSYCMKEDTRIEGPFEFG
Procedure: as §1

| Sequence | uncleaved DNA left (log2) |
| --- | --- |
| TCGAATC | -0.129 |
| TTCCTCG | 0.0219 |
| GGGGCGC | 0.0864 |
| TTCCGGC | -0.0811 |
| AGCTTTC | -0.169 |
| ATACCAC | 0.125 |
| CCTCATG | -0.347 |
| TCGCTCT | 0.0634 |
| TAATAAT | -3.45 |
| GTGCCAC | 0.0958 |
| CTGCCCG | -0.0743 |
| TGCGACT | 0.04 |
| GTAATCT | 0.0797 |
| GGTCGTG | 0.119 |
| AGGCATT | 0.0136 |
| GTCGGTT | 0.0167 |
| GCGCGTT | -0.0623 |
| AGACCAC | 0.0414 |
| CCGTCAA | 0.0205 |
| TGATGCA | 0.056 |

| Sequence | uncleaved DNA left (log2) |
| --- | --- |
| CTTAAAT | 0.0987 |
| TACTTTA | -0.178 |
| GTGGGAA | 0.0343 |
| CTGCATA | -0.0263 |
| TAACCAC | -0.00268 |
| AGTCGGT | 0.0522 |
| TCAAAGA | -0.0525 |
| GAACACA | 0.0661 |
| TACGCCA | 0.0533 |
| GGGGTCG | 0.0344 |
| CCCGAAA | 0.0701 |
| CCTCGTG | 0.0448 |
| CATCAGT | 0.0465 |
| CGCGTTC | -0.0347 |
| AGTAGGA | -0.0582 |
| TCCGGCA | 0.081 |
| CCGCAAC | 0.147 |
| ATACTGG | 0.0317 |
| TGGCAGA | 0.0585 |
| ACCTTCA | -0.0199 |

test system: T3, Rep nickase domain of cabbage leaf curl virus; experiment: as above
T3 sequence (protein, residues 1-116, tag omitted): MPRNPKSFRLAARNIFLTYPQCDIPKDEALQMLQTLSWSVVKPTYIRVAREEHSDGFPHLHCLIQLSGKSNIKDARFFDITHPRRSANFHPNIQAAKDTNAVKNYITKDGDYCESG
Procedure: as §1

| Sequence | uncleaved DNA left (log2) |
| --- | --- |
| TCGAATC | 0.136 |
| TTCCTCG | -0.891 |
| GGGGCGC | 0.766 |
| TTCCGGC | 0.214 |
| AGCTTTC | -0.0471 |
| ATACCAC | 0.121 |
| CCTCATG | -0.494 |
| TCGCTCT | 0.13 |
| TAATAAT | -4.68 |
| GTGCCAC | 0.373 |
| CTGCCCG | -0.753 |
| TGCGACT | -0.101 |
| GTAATCT | 0.252 |
| GGTCGTG | 0.162 |
| AGGCATT | 0.828 |
| GTCGGTT | 0.382 |
| GCGCGTT | -0.224 |
| AGACCAC | 0.342 |
| CCGTCAA | 0.267 |
| TGATGCA | -0.379 |

| Sequence | uncleaved DNA left (log2) |
| --- | --- |
| CTTAAAT | 0.0224 |
| TACTTTA | -0.21 |
| GTGGGAA | 0.571 |
| CTGCATA | -0.239 |
| TAACCAC | -0.419 |
| AGTCGGT | 0.31 |
| TCAAAGA | -0.0318 |
| GAACACA | 0.298 |
| TACGCCA | -0.153 |
| GGGGTCG | 0.375 |
| CCCGAAA | 0.115 |
| CCTCGTG | -0.67 |
| CATCAGT | -0.568 |
| CGCGTTC | -0.0333 |
| AGTAGGA | 0.0874 |
| TCCGGCA | 0.0581 |
| CCGCAAC | 0.11 |
| ATACTGG | -0.0739 |
| TGGCAGA | 0.521 |
| ACCTTCA | -0.293 |

test system: T4, Rep nickase domain of chickpea chlorotic dwarf virus; experiment: as above
T4 sequence (protein, residues 1-124, tag omitted): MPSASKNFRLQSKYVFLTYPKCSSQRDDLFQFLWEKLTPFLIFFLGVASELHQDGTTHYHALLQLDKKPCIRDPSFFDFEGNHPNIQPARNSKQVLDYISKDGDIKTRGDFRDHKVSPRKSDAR
Procedure: as §1

| Sequence | uncleaved DNA left (log2) |
| --- | --- |
| TCGAATC | 0.0671 |
| TTCCTCG | -0.361 |
| GGGGCGC | 1.76 |
| TTCCGGC | 0.25 |
| AGCTTTC | 0.0985 |
| ATACCAC | -0.336 |
| CCTCATG | -0.327 |
| TCGCTCT | -1.57 |
| TAATAAT | -3.31 |
| GTGCCAC | 1.01 |
| CTGCCCG | -0.497 |
| TGCGACT | 0.543 |
| GTAATCT | 0.65 |
| GGTCGTG | 0.259 |
| AGGCATT | 1.77 |
| GTCGGTT | 0.723 |
| GCGCGTT | -0.522 |
| AGACCAC | 0.331 |
| CCGTCAA | 0.0821 |
| TGATGCA | -0.824 |

| Sequence | uncleaved DNA left (log2) |
| --- | --- |
| CTTAAAT | -0.583 |
| TACTTTA | -2.57 |
| GTGGGAA | 1.26 |
| CTGCATA | -0.759 |
| TAACCAC | -2.27 |
| AGTCGGT | 0.602 |
| TCAAAGA | -0.0366 |
| GAACACA | -1.18 |
| TACGCCA | -2.05 |
| GGGGTCG | 0.903 |
| CCCGAAA | 0.136 |
| CCTCGTG | -0.912 |
| CATCAGT | -1.4 |
| CGCGTTC | -0.431 |
| AGTAGGA | 0.383 |
| TCCGGCA | -0.0831 |
| CCGCAAC | -1.07 |
| ATACTGG | -0.0629 |
| TGGCAGA | 1.04 |
| ACCTTCA | -1.27 |

test system: T5, Rep nickase domain of faba bean necrotic yellows virus; experiment: as above
T5 sequence (protein, residues 1-98, tag omitted): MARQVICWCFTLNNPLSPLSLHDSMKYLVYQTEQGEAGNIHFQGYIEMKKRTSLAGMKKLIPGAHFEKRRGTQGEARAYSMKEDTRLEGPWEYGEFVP
Procedure: as §1

| Sequence | uncleaved DNA left (log2) |
| --- | --- |
| TCGAATC | 0.0889 |
| TTCCTCG | -0.0706 |
| GGGGCGC | -0.0786 |
| TTCCGGC | -0.038 |
| AGCTTTC | -0.158 |
| ATACCAC | 0.0477 |
| CCTCATG | -0.0703 |
| TCGCTCT | -0.0261 |
| TAATAAT | -1.19 |
| GTGCCAC | -0.0497 |
| CTGCCCG | -0.0302 |
| TGCGACT | -0.0918 |
| GTAATCT | -0.0258 |
| GGTCGTG | 0.144 |
| AGGCATT | 0.0261 |
| GTCGGTT | 0.0303 |
| GCGCGTT | -0.139 |
| AGACCAC | 0.123 |
| CCGTCAA | 0.0199 |
| TGATGCA | -0.0578 |

| Sequence | uncleaved DNA left (log2) |
| --- | --- |
| CTTAAAT | 0.0732 |
| TACTTTA | -0.0498 |
| GTGGGAA | 0.0135 |
| CTGCATA | 0.204 |
| TAACCAC | 0.0263 |
| AGTCGGT | 0.00301 |
| TCAAAGA | -0.0436 |
| GAACACA | 0.0302 |
| TACGCCA | -0.0689 |
| GGGGTCG | 0.0873 |
| CCCGAAA | -0.172 |
| CCTCGTG | 0.0828 |
| CATCAGT | -0.0236 |
| CGCGTTC | 0.0467 |
| AGTAGGA | 0.0121 |
| TCCGGCA | 0.0232 |
| CCGCAAC | 0.0903 |
| ATACTGG | -0.0214 |
| TGGCAGA | -0.0388 |
| ACCTTCA | 0.0313 |

From the supplement of paper PMC7826260
